The record followed here is the supplement of paper PMC10126150.

The subject of this data set is ATP. Kind of data set: switch fluorescence ratio, 500 uM ATP over buffer (Cy3 cluster intensity, sum of 5 cycles each) (fold (ratio)); higher = stronger signal-on switching upon ATP binding; sequences stand for … in TCGTCGGCAGCGTCAGATGTGTATAAGAGACAGTTTTTTTTTTTTTTTTTTTTTTTTT…TC. The following applies: aptamer strand: ATP DNA aptamer (quencher-CACCTGGGGGAGTATTGCGGAGGAAGG + anchor), 100 nM annealed; ATP concentration: 500 uM; one replicate. In a few lines: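 Clusters carrying Cy3-labelled switching strands on a modified Illumina MiSeq flow-cell were annealed to 100 nM quencher-labelled ATP aptamer and imaged in selection buffer. They were imaged again after 15 min with 500 uM ATP at 22 °C, over five buffer/ATP cycles with NaOH stripping and re-annealing in between. For each cluster, the fluorescence ratio is the summed Cy3 intensity of the target cycles divided by that of the buffer cycles, averaged per switch-domain sequence. Clusters outside 100-1000 RFU were left out.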

Sequences with one replicate were seen in a single cluster, so their values are uncertain.
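Further: ATP exposure 15 min at 22 °C before imaging.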

Turning to GTGACTCCGG, the switch fluorescence ratio was found to be 1.02.
Regarding CCGCTATGCG, the switch fluorescence ratio worked out at 1.65.
Then GATTTACGTT, with 1.01.
Under TTCCGTTTAG stands 2.28.
Then ATGGCTTCTT, with 1.02.
In the case of CGACAGGGGT, the switch fluorescence ratio worked out at 4.33.
Then TGGCGGCTT, with 0.9; and ACTGGAGTGA, with 0.992; and AGAACTTGGG, with 0.991.
For AAAAGCGCCT, the switch fluorescence ratio came to 1.14.
Then CGGCCGTA, with 0.978.
Then GGGAAGTGCC, with 0.945; and GCTAGATAAA, with 0.966; and GAGCGCACCT, with 1.13.
Turning to TAACTTTTAA, the switch fluorescence ratio came out at 0.969.
Then TAGGACCCGC, with 1.06; and GCCCATGTAT, with 0.937.
Then AGACGAAGGA, with 1.06; and AATTCATCTG, with 1.05.
As to GAGGGTGTTG, the switch fluorescence ratio was 0.986.
Then GATGTCCTTG, with 0.974; and GGCAGGGTTA, with 0.992.
Then TTATGTATTA, with 0.976.
Under CATGGGTGTC stands 1.04; under TGTATTGCGT, 0.985; under AGTACCCACC, 1.54.
In the case of GGACGACCAA, the switch fluorescence ratio came out at 1.07.
Under CGGTTACAGT stands 0.979; under TGACATCAGG, 0.992.
Under ACGGCACGG stands 1.48; under AGCACACG, 0.981.
Then ACGTCTTTCC, with 1.12; and TGATACTTG, with 0.981; and CGTAATGGGC, with 1.05.
On to GTGCCAGGAG, for which the switch fluorescence ratio is 1.05.
With TACCTGGAGC, the switch fluorescence ratio was determined as 1.01.
Then GACTTTATGC, with 1.01.
Under CAGGTAGCTA stands 0.979.
Under GGGTAAGCGC stands 1.04; under GCATAAAGGT, 0.978; under TTACGACATT, 1.03.
As to AATTCGATTA, the switch fluorescence ratio came to 0.999.
Under GAGTAGAACC stands 1.04; under TAAGAGTAGT, 0.996; under CTCGGCTTCT, 1.02.
Under TTTGATGAAG stands 0.965; under GAGTACGTTT, 1.02.
As to ACCAGGTACG, the switch fluorescence ratio was determined as 1.12.
Then GACTTTGACA, with 1.06; and CAACTTGACG, with 0.907; and TTCATGGTCA, with 1.02.
Under CATGGTCGTT stands 1.04; under ATGTGCTTTT, 0.988.
Then ACGCGCGCCG, with 1; and ACTTGGTATA, with 1.04; and TACCTTTCGC, with 1.51.
As for GGACGGTTCC, the switch fluorescence ratio worked out at 1.
Under TCACGGGGAG stands 1; under TCCCGACATA, 1.1.
Take CTTAGACTGT: the switch fluorescence ratio came to 1.03.
Under CAGCAAGCAA stands 6.26; under AACTAATTAG, 1.01.
Under TCCGGTTGTG stands 1.02; under ATGATGGATG, 0.976; under GTAGAACTTA, 1.05.
Under TTCTTGTCAC stands 1.08.
TGTTAGCTAA: the switch fluorescence ratio worked out at 0.985.
Under AATTAGGGGC stands 0.957; under CATCTATGCT, 1.01.
In the case of GGATTAGTTC, the switch fluorescence ratio came out at 0.956.
Then CTTTTTCCGT, with 1.12.
For GACTGTCGAA, the switch fluorescence ratio worked out at 1.01.
Then AGTCAGGGCA, with 0.983; and AGGTCAACTC, with 1.01; and CCTATGAGGG, with 1.45.
Under TAAATCTTCA stands 1.3; under TATCCAATTG, 1.01.
GCGTCTGGGA: the switch fluorescence ratio came to 1.02.
Consider CCGAGTAATT, for which the switch fluorescence ratio came to 3.75.
Then TCAGACCAG, with 0.975; and TTGCTTGCCG, with 1.01; and AATCGATTTA, with 0.986.
Regarding TTCTGATCTC, the switch fluorescence ratio was 1.01.
Regarding TCGATTCAAG, the switch fluorescence ratio worked out at 1.
Under GGTAGCGTA stands 0.988; under ATCAGAGGGC, 0.982; under GTTACAGCTG, 1.04.
Under GTGGATAGAG stands 0.968; under CAAAGTCTTT, 0.957.
Under GGGCAGAGG stands 0.96.
For the sequence GCTTGTACCT, the switch fluorescence ratio was determined as 1.1.
In the case of CAACCCTGCT, the switch fluorescence ratio stood at 0.966.
Turning to GGAGTTAGCT, the switch fluorescence ratio came out at 0.971.
Consider GTTCCTTAAC, for which the switch fluorescence ratio came out at 1.02.
Under AACGATATTT stands 1.01; under TAACTGTCGT, 0.982.
With AAGTACAGGG, the switch fluorescence ratio is 1.17.
Under AAGTCGGGC stands 0.97; under ACATTTATAA, 1.01; under ACCATTATTG, 0.999.
Under GACACAAAG stands 1.
For the sequence CCGTGCCGCT, the switch fluorescence ratio amounted to 1.
Then TTTTATTTG, with 0.983; and GAAACACTCC, with 1.25.
Under CTAACAGGGA stands 1.01.
Then TTTGTTGAAC, with 1.01; and AAAAATCAGA, with 0.975; and CACGAACGGG, with 1.45.
As to ACCGGAGTC, the switch fluorescence ratio stood at 1.23.
Turning to ATACGTGTGT, the switch fluorescence ratio amounted to 1.01.
In the case of GACATTCCAG, the switch fluorescence ratio was 1.02.
Then GTGTGGGTTG, with 1.06.
Consider TGGTTATCGT, for which the switch fluorescence ratio amounted to 0.925.
Then ATTGAAGCG, with 1.14; and CGACGTGGAG, with 1.03; and CTTAAGGAAG, with 0.989.
Take TTCGTCGGTG: the switch fluorescence ratio worked out at 0.984.
Under TACCGAGCGA stands 1.93; under AATTTGAGAC, 1.04; under TGTGTAAGTT, 1.02.
